# The supplement of paper PMC8728848
# The other results are listed elsewhere or left out.
# B1: MSMEG3662-2a (Mycobacterium smegmatis), A0QYH7_MYCS2 (protein)
# chain: MGDTLTAGQKLERGGSLQSGNGAYTLTLQDDGNLVLYARDKAVWSTGTNGQDVVRAEVQTDGNFVLYTAEKPVWHTDTKGKKEVKLVLQDDRNLVLYAKDGPAWSSKTDTTEPPPPAPEPEKEAEVAPAAAEEAAPAPVAEPAPAEPAPAAPPPAPPAPRTYTVVSGDTLWAIAERFYGDGSKYQQIADASGIANPDLIHPGQVLTIP
# Assays:
# Test in all cases: glycan array binding signal (z-score within array); higher = stronger binding
# Settings in all cases: glycan notation: IUPAC condensed, linker removed
# Glc(b1-4)Glc = biological target: Glc(b1-4)Glc
# Procedure, shortened: (§1)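 Negative Z-scores can be read as non-binding. The Z-score is calculated within each array and then averaged across arrays of one protein sequence at different concentrations or buffers and across linkers. Arrays, 3228 in all, were curated from the Consortium for Functional Glycomics database and kept only where the protein sequence was available.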
# Glc(b1-6)Glc = biological target: Glc(b1-6)Glc
# Procedure, shortened: as §1
# GlcA(b1-3)Gal = biological target: GlcA(b1-3)Gal
# Procedure, shortened: as §1
# GlcA(b1-3)GlcNAc = biological target: GlcA(b1-3)GlcNAc
# Procedure, shortened: as §1
# GlcA(b1-6)Gal = biological target: GlcA(b1-6)Gal
# Procedure, shortened: as §1
# [1] = biological target: GlcA3S(b1-3)Gal(b1-4)GlcNAc(b1-2)Man
# Procedure, shortened: as §1
# [2] = biological target: GlcA3S(b1-3)Gal(b1-4)GlcNAc(b1-3)Gal(b1-4)Glc
# Procedure, shortened: as §1
# [3] = biological target: GlcNAc(a1-3)Gal(b1-4)GlcNAc
# Procedure, shortened: as §1
# [4] = biological target: GlcNAc(a1-4)Gal(b1-3)GlcNAc
# Procedure, shortened: as §1
# [5] = biological target: GlcNAc(a1-4)Gal(b1-4)GalNAc
# Procedure, shortened: as §1
# [6] = biological target: GlcNAc(a1-4)Gal(b1-4)GlcNAc
# Procedure, shortened: as §1
# [7] = biological target: GlcNAc(a1-4)Gal(b1-4)GlcNAc(b1-3)Gal(b1-4)Glc
# Procedure, shortened: as §1
# [8] = biological target: GlcNAc(a1-4)Gal(b1-4)GlcNAc(b1-3)Gal(b1-4)GlcNAc
# Procedure, shortened: as §1
# [9] = biological target: GlcNAc(a1-4)Gal(b1-4)GlcNAc(b1-3)Gal(b1-4)GlcNAc(b1-3)Gal(b1-4)GlcNAc
# Procedure, shortened: as §1
# [10] = biological target: GlcNAc(a1-4)Gal(b1-4)GlcNAc(b1-3)Gal(b1-4)[Fuc(a1-3)]GlcNAc(b1-3)Gal(b1-4)[Fuc(a1-3)]GlcNAc
# Procedure, shortened: as §1
# [11] = biological target: GlcNAc(a1-6)Gal(b1-4)GlcNAc
# Procedure, shortened: as §1
# [12] = biological target: GlcNAc(b1-2)Gal(b1-3)GalNAc
# Procedure, shortened: as §1
# [13] = biological target: GlcNAc(b1-2)Man(a1-3)[GlcNAc(b1-2)Man(a1-6)]Man(b1-4)GlcNAc(b1-4)GlcNAc
# Procedure, shortened: as §1
# [14] = biological target: GlcNAc(b1-2)Man(a1-3)[GlcNAc(b1-2)Man(a1-6)]Man(b1-4)GlcNAc(b1-4)[Fuc(a1-6)]GlcNAc
# Procedure, shortened: as §1
# [15] = biological target: GlcNAc(b1-2)Man(a1-3)[GlcNAc(b1-4)][GlcNAc(b1-2)Man(a1-6)]Man(b1-4)GlcNAc(b1-4)GlcNAc
# Procedure, shortened: as §1
# [16] = biological target: GlcNAc(b1-2)Man(a1-3)[GlcNAc(b1-4)][GlcNAc(b1-2)Man(a1-6)]Man(b1-4)GlcNAc(b1-4)[Fuc(a1-6)]GlcNAc
# Procedure, shortened: as §1
# [17] = biological target: GlcNAc(b1-2)[GlcNAc(b1-4)]Man(a1-3)[GlcNAc(b1-2)Man(a1-6)]Man(b1-4)GlcNAc(b1-4)GlcNAc
# Procedure, shortened: as §1
# [18] = biological target: GlcNAc(b1-2)[GlcNAc(b1-4)]Man(a1-3)[GlcNAc(b1-4)][GlcNAc(b1-2)Man(a1-6)]Man(b1-4)GlcNAc(b1-4)GlcNAc
# Procedure, shortened: as §1
# [19] = biological target: GlcNAc(b1-2)[GlcNAc(b1-4)]Man(a1-3)[GlcNAc(b1-4)][GlcNAc(b1-2)[GlcNAc(b1-6)]Man(a1-6)]Man(b1-4)GlcNAc(b1-4)GlcNAc
# Procedure, shortened: as §1
# [20] = biological target: GlcNAc(b1-2)[GlcNAc(b1-4)]Man(a1-3)[GlcNAc(b1-4)][GlcNAc(b1-2)[GlcNAc(b1-6)]Man(a1-6)]Man(b1-4)GlcNAc(b1-4)[Fuc(a1-6)]GlcNAc
# Procedure, shortened: as §1
# [21] = biological target: GlcNAc(b1-2)[GlcNAc(b1-6)]Man(a1-6)[GlcNAc(b1-2)Man(a1-3)]Man(b1-4)GlcNAc(b1-4)GlcNAc
# Procedure, shortened: as §1
# [22] = biological target: GlcNAc(b1-2)[GlcNAc(b1-6)]Man(a1-6)[GlcNAc(b1-2)Man(a1-3)]Man(b1-4)GlcNAc(b1-4)[Fuc(a1-6)]GlcNAc
# Procedure, shortened: as §1
# [23] = biological target: GlcNAc(b1-2)[GlcNAc(b1-6)]Man(a1-6)[GlcNAc(b1-4)][GlcNAc(b1-2)Man(a1-3)]Man(b1-4)GlcNAc(b1-4)GlcNAc
# Procedure, shortened: as §1
# GlcNAc(b1-3)Fuc = biological target: GlcNAc(b1-3)Fuc
# Procedure, shortened: as §1
# GlcNAc(b1-3)Gal = biological target: GlcNAc(b1-3)Gal
# Procedure, shortened: as §1
# [24] = biological target: GlcNAc(b1-3)Gal(b1-3)GalNAc
# Procedure, shortened: as §1
# GlcNAc(b1-3)Gal(b1-4)Glc = biological target: GlcNAc(b1-3)Gal(b1-4)Glc
# Procedure, shortened: as §1
# [25] = biological target: GlcNAc(b1-3)Gal(b1-4)GlcNAc
# Procedure, shortened: as §1
# [26] = biological target: GlcNAc(b1-3)Gal(b1-4)GlcNAc(b1-2)Man(a1-3)[GlcNAc(b1-3)Gal(b1-4)GlcNAc(b1-2)Man(a1-6)]Man(b1-4)GlcNAc(b1-4)GlcNAc
# Procedure, shortened: as §1
# [27] = biological target: GlcNAc(b1-3)Gal(b1-4)GlcNAc(b1-2)Man(a1-3)[GlcNAc(b1-3)Gal(b1-4)GlcNAc(b1-2)Man(a1-6)]Man(b1-4)GlcNAc(b1-4)[Fuc(a1-6)]GlcNAc
# Procedure, shortened: as §1
# [28] = biological target: GlcNAc(b1-3)Gal(b1-4)GlcNAc(b1-2)[GlcNAc(b1-3)Gal(b1-4)GlcNAc(b1-6)]Man(a1-6)[GlcNAc(b1-3)Gal(b1-4)GlcNAc(b1-2)Man(a1-3)]Man(b1-4)GlcNAc(b1-4)GlcNAc
# Procedure, shortened: as §1
# [29] = biological target: GlcNAc(b1-3)Gal(b1-4)GlcNAc(b1-3)Gal(b1-4)GlcNAc
# Procedure, shortened: as §1
# [30] = biological target: GlcNAc(b1-3)Gal(b1-4)GlcNAc(b1-3)Gal(b1-4)GlcNAc(b1-2)Man(a1-3)[GlcNAc(b1-3)Gal(b1-4)GlcNAc(b1-3)Gal(b1-4)GlcNAc(b1-2)Man(a1-6)]Man(b1-4)GlcNAc(b1-4)GlcNAc
# Procedure, shortened: as §1
# [31] = biological target: GlcNAc(b1-3)Gal(b1-4)GlcNAc(b1-3)Gal(b1-4)GlcNAc(b1-2)Man(a1-3)[GlcNAc(b1-3)Gal(b1-4)GlcNAc(b1-3)Gal(b1-4)GlcNAc(b1-2)Man(a1-6)]Man(b1-4)GlcNAc(b1-4)[Fuc(a1-6)]GlcNAc
# Procedure, shortened: as §1
# [32] = biological target: GlcNAc(b1-3)Gal(b1-4)GlcNAc(b1-3)Gal(b1-4)GlcNAc(b1-2)[GlcNAc(b1-3)Gal(b1-4)GlcNAc(b1-3)Gal(b1-4)GlcNAc(b1-6)]Man(a1-6)[GlcNAc(b1-3)Gal(b1-4)GlcNAc(b1-3)Gal(b1-4)GlcNAc(b1-2)Man(a1-3)]Man(b1-4)GlcNAc(b1-4)[Fuc(a1-6)]GlcNAc
# Procedure, shortened: as §1
# [33] = biological target: GlcNAc(b1-3)Gal(b1-4)GlcNAc(b1-3)Gal(b1-4)GlcNAc(b1-3)Gal(b1-4)GlcNAc(b1-2)Man(a1-3)[GlcNAc(b1-3)Gal(b1-4)GlcNAc(b1-3)Gal(b1-4)GlcNAc(b1-3)Gal(b1-4)GlcNAc(b1-2)Man(a1-6)]Man(b1-4)GlcNAc(b1-4)GlcNAc
# Procedure, shortened: as §1
# [34] = biological target: GlcNAc(b1-3)Gal(b1-4)GlcNAc(b1-3)Gal(b1-4)GlcNAc(b1-3)Gal(b1-4)GlcNAc(b1-2)Man(a1-3)[GlcNAc(b1-3)Gal(b1-4)GlcNAc(b1-3)Gal(b1-4)GlcNAc(b1-3)Gal(b1-4)GlcNAc(b1-2)Man(a1-6)]Man(b1-4)GlcNAc(b1-4)[Fuc(a1-6)]GlcNAc
# Procedure, shortened: as §1
# [35] = biological target: GlcNAc(b1-3)Gal(b1-4)GlcNAc(b1-3)Gal(b1-4)GlcNAc(b1-3)Gal(b1-4)GlcNAc(b1-2)[GlcNAc(b1-3)Gal(b1-4)GlcNAc(b1-3)Gal(b1-4)GlcNAc(b1-3)Gal(b1-4)GlcNAc(b1-6)]Man(a1-6)[GlcNAc(b1-3)Gal(b1-4)GlcNAc(b1-3)Gal(b1-4)GlcNAc(b1-3)Gal(b1-4)GlcNAc(b1-2)Man(a1-3)]Man(b1-4)GlcNAc(b1-4)[Fuc(a1-6)]GlcNAc
# Procedure, shortened: as §1
# [36] = biological target: GlcNAc(b1-3)Gal(b1-4)GlcNAc(b1-3)Gal(b1-4)GlcNAc(b1-3)Gal(b1-4)GlcNAc(b1-3)Gal(b1-4)GlcNAc(b1-2)Man(a1-3)[GlcNAc(b1-3)Gal(b1-4)GlcNAc(b1-3)Gal(b1-4)GlcNAc(b1-3)Gal(b1-4)GlcNAc(b1-3)Gal(b1-4)GlcNAc(b1-2)Man(a1-6)]Man(b1-4)GlcNAc(b1-4)GlcNAc
# Procedure, shortened: as §1
# [37] = biological target: GlcNAc(b1-3)Gal(b1-4)GlcNAc(b1-3)Gal(b1-4)GlcNAc(b1-3)Gal(b1-4)GlcNAc(b1-3)Gal(b1-4)GlcNAc(b1-2)Man(a1-3)[GlcNAc(b1-3)Gal(b1-4)GlcNAc(b1-3)Gal(b1-4)GlcNAc(b1-3)Gal(b1-4)GlcNAc(b1-3)Gal(b1-4)GlcNAc(b1-2)Man(a1-6)]Man(b1-4)GlcNAc(b1-4)[Fuc(a1-6)]GlcNAc
# Procedure, shortened: as §1
binder,measurement,setting,value
B1,glycan array binding signal (z-score),Glc(b1-4)Glc,0.015
same,glycan array binding signal (z-score),Glc(b1-6)Glc,-0.107
same,glycan array binding signal (z-score),GlcA(b1-3)Gal,-0.166
same,glycan array binding signal (z-score),GlcA(b1-3)GlcNAc,-0.149
same,glycan array binding signal (z-score),GlcA(b1-6)Gal,-0.102
same,glycan array binding signal (z-score),[1],-0.066
same,glycan array binding signal (z-score),[2],-0.189
same,glycan array binding signal (z-score),[3],-0.054
same,glycan array binding signal (z-score),[4],-0.19
same,glycan array binding signal (z-score),[5],-0.09
same,glycan array binding signal (z-score),[6],0.026
same,glycan array binding signal (z-score),[7],-0.07
same,glycan array binding signal (z-score),[8],-0.131
same,glycan array binding signal (z-score),[9],-0.091
same,glycan array binding signal (z-score),[10],0.237
same,glycan array binding signal (z-score),[11],0.008
same,glycan array binding signal (z-score),[12],-0.084
same,glycan array binding signal (z-score),[13],-0.114
same,glycan array binding signal (z-score),[14],-0.076
same,glycan array binding signal (z-score),[15],-0.102
same,glycan array binding signal (z-score),[16],-0.203
same,glycan array binding signal (z-score),[17],-0.117
same,glycan array binding signal (z-score),[18],-0.197
same,glycan array binding signal (z-score),[19],-0.126
same,glycan array binding signal (z-score),[20],-0.239
same,glycan array binding signal (z-score),[21],-0.123
same,glycan array binding signal (z-score),[22],-0.059
same,glycan array binding signal (z-score),[23],-0.029
same,glycan array binding signal (z-score),GlcNAc(b1-3)Fuc,-0.141
same,glycan array binding signal (z-score),GlcNAc(b1-3)Gal,-0.074
same,glycan array binding signal (z-score),[24],-0.057
same,glycan array binding signal (z-score),GlcNAc(b1-3)Gal(b1-4)Glc,-0.06
same,glycan array binding signal (z-score),[25],-0.14
same,glycan array binding signal (z-score),[26],0.049
same,glycan array binding signal (z-score),[27],-0.093
same,glycan array binding signal (z-score),[28],-0.017
same,glycan array binding signal (z-score),[29],-0.131
same,glycan array binding signal (z-score),[30],0.124
same,glycan array binding signal (z-score),[31],-0.086
same,glycan array binding signal (z-score),[32],0.085
same,glycan array binding signal (z-score),[33],-0.056
same,glycan array binding signal (z-score),[34],-0.053
same,glycan array binding signal (z-score),[35],-0.065
same,glycan array binding signal (z-score),[36],0.022
same,glycan array binding signal (z-score),[37],-0.029
